The text below walks through data of the RNAGym collection of RNA variant scans (doi:10.1073/pnas.2313332121).

This sample is rich in variants without activity.

The chains are these.
B1: TPR 5TU (parent)
chain: GGAUCUUCUCGAUCUAACAAAAAAGACAAAUCUGCCACAAAGCUUGAGAGCAUCUUCGGAUGCAGAGGCGGCAGCCUUCGGUGGCGCGAUAGCGCCAACGUUCUCAACUAUGACACGCAAAACGCGUGCUCCGUUGAAUGGAGUUUAUCAUG

The data set covers variants of B1. Nature of the data set: polymerase ribozyme fitness, log enrichment relative to wild type (log ratio); higher = more active; in vitro selection for triplet polymerase activity. An outline of the steps:
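Mutant libraries of each subunit of a heterodimeric triplet polymerase ribozyme were built by PCR and transcribed. Each library went through one round of in vitro selection in triplicate: annealing with biotinylated primer, partner subunit and triplets, frozen incubation at −7 °C, gel excision of extended constructs, streptavidin-bead capture and RT-PCR. Input and output libraries were Illumina-sequenced; only genotypes with ≥10 input reads and ≥1 read per output were kept. Fitness is log2(genotype enrichment/wild-type enrichment), using inverse-variance-weighted replicate averages.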
Take U7G C75G G84A G141A: the “polymerase ribozyme fitness (log ratio)” value was no more than -4.2.
As for U7A C14A A16G G58C G83U, the “polymerase ribozyme fitness (log ratio)” value was no more than -4.2.
C8A A12U G81A C87U U146G: the “polymerase ribozyme fitness (log ratio)” value was no more than -4.2.
As to U7G G50A C76G G81U C87A G112A G141U, the “polymerase ribozyme fitness (log ratio)” value is no more than -4.2.
U7A G74A C79U C85U C87A A110U: the “polymerase ribozyme fitness (log ratio)” value was no more than -4.2.
U7A U55A: the “polymerase ribozyme fitness (log ratio)” value is -3.25.
As for U7A C54U G92A U101G A110G U146A, the “polymerase ribozyme fitness (log ratio)” value is no more than -4.2.
Then U7A C27A U31G A66U U146G A150U, with no more than -4.2; and U7A U9G C69U G81A G88A A106G, with no more than -4.2; and U7G A47C A49U G86U C99U, with no more than -4.2.
For the variant U7G G46C U61A C63U U82A A122G, the “polymerase ribozyme fitness (log ratio)” value was no more than -4.2.
With U7G C38A G83A G84U U148C, the “polymerase ribozyme fitness (log ratio)” value is no more than -4.2.
C8A A17G A30G A41U C51U G71C U145C: the “polymerase ribozyme fitness (log ratio)” value is no more than -4.2.
As to U7G G11A U56A G81A C87G, the “polymerase ribozyme fitness (log ratio)” value was no more than -4.2.
Regarding U7C A41U G83C G124C, the “polymerase ribozyme fitness (log ratio)” value was no more than -4.2.
In the case of C8A A16G G50U G83C U135C G136C, the “polymerase ribozyme fitness (log ratio)” value was no more than -4.2.
Consider U7A U55A C79A C85U A121C C132U U134C U135C, for which the “polymerase ribozyme fitness (log ratio)” value is no more than -4.2.
Take U7C C10U A26U C69A U77C G88A A106G G143U: the “polymerase ribozyme fitness (log ratio)” value was no more than -4.2.
Regarding U7C C38U C95A A119U, the “polymerase ribozyme fitness (log ratio)” value was -2.61.
With U7A G50A U78A C79G G86A C87A C99G A115U G141U, the “polymerase ribozyme fitness (log ratio)” value was no more than -4.2.
Regarding U7C C27U A49C A52G C79A C87G C93G C96A A97U C99U C108U A120U, the “polymerase ribozyme fitness (log ratio)” value is -4.18.
As to U7G U82G A115U G117U, the “polymerase ribozyme fitness (log ratio)” value was no more than -4.2.
On to U7G U15G A21C A39G U45G G92U U127C, for which the “polymerase ribozyme fitness (log ratio)” value is no more than -4.2.
Take U7C C63A A66G C93U C95U G133C: the “polymerase ribozyme fitness (log ratio)” value is no more than -4.2.
With U7G A26G U31G G74A, the “polymerase ribozyme fitness (log ratio)” value was no more than -4.2.
In the case of C8A A22C G25A C54G A60C C76G G80A G88U A89C, the “polymerase ribozyme fitness (log ratio)” value was no more than -4.2.
Consider U6G U9A A28C C35U C57A C96G A119U, for which the “polymerase ribozyme fitness (log ratio)” value is no more than -4.2.
For the variant U7G G94A C96U A98U C114U G140U, the “polymerase ribozyme fitness (log ratio)” value was no more than -4.2.
With U7A A24U G83C A122U U135C the figure was no more than -4.2; with U7A C35U C85G U102G, no more than -4.2; with C8A A28G C75G G84C A120G, no more than -4.2.
Regarding U7G C54G G81C U111G C132G U135G G136A, the “polymerase ribozyme fitness (log ratio)” value is no more than -4.2.
As for C8A A19C A22C C63U U78A C108U, the “polymerase ribozyme fitness (log ratio)” value was no more than -4.2.
For U7G A37G C38U G59U A60U G94U C108U, the “polymerase ribozyme fitness (log ratio)” value was no more than -4.2.
For U7A G11A A12C U13A U45C C51U A60C C76G G86U G92C A115U, the “polymerase ribozyme fitness (log ratio)” value was no more than -4.2.
Take U7A A28U A40U U55A C57A C76U U78G C96G C123G: the “polymerase ribozyme fitness (log ratio)” value was no more than -4.2.
Then U7G C43U C93U U101G G143C A150C, with no more than -4.2; and C8A A26C C79G A89G G92A, with no more than -4.2.
U6G U7A C14G G50U C87A C99U U144A: the “polymerase ribozyme fitness (log ratio)” value is no more than -4.2.
With U7A A23C C36A U56A A91U C132G the figure was -3.78; with U7A A119G A120C, -3.25; with U7C G25C G50U U56A G67A C87U G92A C93G G143A, no more than -4.2.
With U7C A30G C35G U109G the figure was no more than -4.2.
Turning to U7G U53A U56A A91U, the “polymerase ribozyme fitness (log ratio)” value was no more than -4.2.
For the variant U7G U82A G117U, the “polymerase ribozyme fitness (log ratio)” value was -3.65.
As to U7G G92U, the “polymerase ribozyme fitness (log ratio)” value was -2.39.
Consider U7G A23C A24U C54G, for which the “polymerase ribozyme fitness (log ratio)” value was no more than -4.2.
Take U7C C54A G81C A97U A110U: the “polymerase ribozyme fitness (log ratio)” value was no more than -4.2.
For the variant U7G A60G, the “polymerase ribozyme fitness (log ratio)” value was -2.7.
Consider U7A A26U G42U C54A C57U A106U, for which the “polymerase ribozyme fitness (log ratio)” value is no more than -4.2.
In the case of C8A C10U A17C C32U A41C C85G C99U, the “polymerase ribozyme fitness (log ratio)” value is no more than -4.2.
As to U7C C8U C14G U15G G42U C87G U135G U144G, the “polymerase ribozyme fitness (log ratio)” value is no more than -4.2.
C8A A22U G84A A91C: the “polymerase ribozyme fitness (log ratio)” value was no more than -4.2.
With U7A C10A C14U C32G C36A U53G U55G U61A G67C U82G C87G C96U C103G the figure was no more than -4.2; with U7A C18U A23C A28U A39G G48C C57G U61A C76G, no more than -4.2.
Then U6G U33G C35U A52C C57U C93G A113U U144C, with no more than -4.2; and C8A A12U C35G G92U C103G, with -3.99.
On to C8A A17G A73U U78G C87U, for which the “polymerase ribozyme fitness (log ratio)” value is no more than -4.2.
In the case of U7C A23U C87A A89G C116U C125U, the “polymerase ribozyme fitness (log ratio)” value is no more than -4.2.
On to U7C G68U A73G U82A G92A U101C C116A A137C, for which the “polymerase ribozyme fitness (log ratio)” value was no more than -4.2.
As for U7C G11A U90A, the “polymerase ribozyme fitness (log ratio)” value is no more than -4.2.
U7G A17C C75U G81A C85A C95G A98U: the “polymerase ribozyme fitness (log ratio)” value is no more than -4.2.
Take U7C C14G A17U U45A G86U A91U G124U U139A: the “polymerase ribozyme fitness (log ratio)” value was no more than -4.2.
Consider U7G G46C G86U A91G U139A, for which the “polymerase ribozyme fitness (log ratio)” value was no more than -4.2.
With U7G G71U C76A C85U U90A C105U G117A, the “polymerase ribozyme fitness (log ratio)” value was no more than -4.2.
Then U7A C14G G25C C32G A106C, with no more than -4.2; and U7G U44G U55G C99A, with no more than -4.2.
Consider U7A U61A G62A G71C C103G, for which the “polymerase ribozyme fitness (log ratio)” value is no more than -4.2.
As to U7C A21C U33G C43U G62A C87U, the “polymerase ribozyme fitness (log ratio)” value was no more than -4.2.
Regarding C8A A22G A28G C93U A137U, the “polymerase ribozyme fitness (log ratio)” value is no more than -4.2.
With C8A A19U A22G C93A G133C the figure was no more than -4.2; with U7A C35G A60G G68U C93U, no more than -4.2.
For the variant U7A U45G A49C G50C C87U C96A, the “polymerase ribozyme fitness (log ratio)” value is no more than -4.2.
Consider U6G U13G C57G, for which the “polymerase ribozyme fitness (log ratio)” value is -2.26.
As for C8A A24U G58A U77A G83U G141A, the “polymerase ribozyme fitness (log ratio)” value was no more than -4.2.
For U7G C10U C36G G70C A122U C149G, the “polymerase ribozyme fitness (log ratio)” value was no more than -4.2.
On to U7G C14G A28C G42A, for which the “polymerase ribozyme fitness (log ratio)” value was no more than -4.2.
Then U7G A28U A41U C57A C87G C131G U148C, with no more than -4.2; and C8A A20G G42C A98U C108G A138U U144G, with no more than -4.2; and U7G C54U G92U, with -2.21.
Turning to U7G A20C U56A C72G A73G C85U C93G A98G A115U, the “polymerase ribozyme fitness (log ratio)” value is no more than -4.2.
With U7A A16U A29U U31C C87A U145G the figure was no more than -4.2; with U7A C18U, -3.45.
